From PubChem BioAssay AID488969 (Vanderbilt High Throughput Screening Facility, 2010) come the findings set out here.

Each structure is given as a SMILES string. Over roughly 110,000 compounds, “z-score” has its median near -0.1; the highest 2% begin near 2. This is one part of the list. Calls of active or inactive are those of the source.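 Rule for the calls: active = z-score in the third read window above 3 or below -3; inactive = the rest.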

In this assay the target is Metabotropic glutamate receptor 8 (Rattus norvegicus) (UniProt P70579). As to the kind of experiment: rat mGluR8 modulators via GIRK flux, primary screen, cell-based, thallium flux, HTS (AID 488969). The following applies: HEK293 rat mGluR8, GIRK (G protein-gated inwardly rectifying potassium channel) thallium flux, FluoZin2; at 10 µM; stronger effect = higher value; submaximal glutamate (EC20) added with thallium.
UniProt P70579, sequence (P70579 whole entry, looked up): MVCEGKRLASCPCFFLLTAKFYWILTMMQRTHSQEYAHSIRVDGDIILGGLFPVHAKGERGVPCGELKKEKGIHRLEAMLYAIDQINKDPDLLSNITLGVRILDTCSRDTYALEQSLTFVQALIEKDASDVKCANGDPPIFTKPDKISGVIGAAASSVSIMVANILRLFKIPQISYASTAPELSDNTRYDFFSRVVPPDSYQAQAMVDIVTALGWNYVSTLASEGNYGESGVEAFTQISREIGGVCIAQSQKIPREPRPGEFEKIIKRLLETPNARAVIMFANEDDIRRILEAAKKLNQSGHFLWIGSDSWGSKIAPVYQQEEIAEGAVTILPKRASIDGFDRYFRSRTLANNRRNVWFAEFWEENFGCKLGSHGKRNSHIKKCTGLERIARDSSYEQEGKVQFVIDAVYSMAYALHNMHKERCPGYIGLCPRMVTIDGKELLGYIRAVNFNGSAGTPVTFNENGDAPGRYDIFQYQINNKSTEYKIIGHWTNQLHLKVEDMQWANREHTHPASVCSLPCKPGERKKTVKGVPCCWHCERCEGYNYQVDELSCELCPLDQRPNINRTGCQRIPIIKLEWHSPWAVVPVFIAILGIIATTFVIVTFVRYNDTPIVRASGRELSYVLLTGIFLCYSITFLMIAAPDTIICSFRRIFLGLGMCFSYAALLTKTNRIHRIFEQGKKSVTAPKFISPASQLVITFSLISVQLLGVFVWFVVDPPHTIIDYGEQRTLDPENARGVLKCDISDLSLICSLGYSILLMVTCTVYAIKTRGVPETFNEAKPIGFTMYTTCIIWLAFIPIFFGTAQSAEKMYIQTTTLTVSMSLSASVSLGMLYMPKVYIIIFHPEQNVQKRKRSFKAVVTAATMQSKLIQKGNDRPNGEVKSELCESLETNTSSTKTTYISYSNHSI
For `O=C(c1cc(-c2ccc3c(c2)OCO3)on1)N1CCN(c2ccccc2)CC1`, the z-score is 0.0554. Molecule `CCc1ccc(OCC(=O)Nc2cc(S(=O)(=O)CC)ccc2O)cc1` gave a z-score of -0.0727. The molecule `Cc1ccc(-n2c(C)cc3c2CCCC3=O)cc1` came in with a z-score of 0.096.

For the molecule `CS(=O)(=O)N1CCN(C(=O)c2ccccc2F)CC1`, the z-score was -0.0414.

The molecule `CN1CC2=Cc3ccccc3OC23Oc2ccccc2C=C3C1` showed a z-score of 2.01. Then `CCOCCCNC(=S)NCCNc1nc2c(C)cccc2cc1C#N`, with -0.7; and `Cc1ccsc1/C=C1/SC(N2CCOCC2)=NC1=O`, with 0.0375. Take `COc1ccc(CC(NC(C)=O)C(=O)NC2CCN(C(=O)Nc3ccc(C#N)cc3)CC2)cc1OC` (centres undefined): the z-score was -0.0576. As for `CCCNC(=O)NCCc1ccncc1`, the z-score was determined as 0.239. Molecule `C=CCSc1nnc(C)n1-c1ccc(Cl)cc1` returned a z-score of -0.174. The molecule `CCCCCCCC(=O)NC(Nc1ccc(S(N)(=O)=O)cc1)C(Cl)(Cl)Cl` (centres undefined) displayed a z-score of -0.302. Then `O=C1NC(c2cccs2)Nc2sc3c(c21)CCCC3` (centres undefined), with -0.137. `O=C(CSc1nc2c([nH]c3ccccc32)c(=O)n1-c1cccc(Cl)c1)N1CCOCC1` came in with a z-score of -0.224. Then `CCOC(=O)N1CCN(Cc2nc(-c3ccc(C)cc3)no2)CC1`, with 0.175. `Cc1ccc(O)c(C(=O)c2cnc3c(c2)c(C)nn3-c2ccccc2)c1` returned a z-score of 0.522. `Cc1cccc(NC(=O)c2sc3nc4c(c(-c5cccs5)c3c2N)CN(C)CC4)c1`: the z-score is -0.0909. Take `Cc1cc(C)cc(N(CC(=O)N2CCN(Cc3ccccc3)CC2)S(=O)(=O)c2c(C)noc2C)c1`: the z-score is 0.124. Consider `CC1(C)CC(=O)C2=C(C1)N(c1cccc(O)c1)C1=C(C2)C(=O)CC(C)(C)C1`, for which the z-score is -0.746.

Molecule `Cn1c(-n2c(CCCN3C(=O)c4ccccc4C3=O)nc3ccccc3c2=O)nc2ccccc21` returned a z-score of -0.252. Molecule `Cc1cc(C(=O)OCC(=O)Nc2ncc(C(F)(F)F)cc2Cl)c(C)o1` displayed a z-score of -0.119. On to `O=C(NC1CCCCC1)C(c1cccs1)N(C(=O)C(F)(F)F)c1ccccc1` (centres undefined), for which the z-score was found to be 0.111. In turn, `COc1ccc(C(=O)N[C@H](C(=O)OCC(=O)NC(=O)c2cccn2C)C(C)C)cc1` had a z-score of -0.0993. In turn, `Cc1ccc(N2Cc3ccccc3OC(C)C2=O)cc1` (centres undefined) registered a z-score of -0.257. Turning to `Cc1nn(Cc2c(F)c(F)c(F)c(F)c2F)c(C)c1NC(=O)c1ccc(COc2ccc(F)cc2)o1`, the z-score was -1.15. On to `COc1ccccc1/C=C/C(=O)Nc1ccc2c(c1)OCCO2`, for which the z-score was found to be 0.0024. Molecule `Cc1nc(NC(=O)CSc2nnc3ccccn23)c(Cl)cc1Cl` had a z-score of 0.201. Turning to `CC(=O)N1Cc2ccccc2C(C)CC12CCCCC2` (centres undefined), the z-score is -0.727. `O=c1[nH]c2ccccc2n1CCCSc1cnc2ccccc2n1` displayed a z-score of -0.509.

As for `Cc1ccc(C(=O)NCCCn2ccnc2)o1`, the z-score was -0.246. Molecule `COc1cc(OC)cc(C(=O)NCCNC(=O)c2ccco2)c1` came in with a z-score of -0.11. Take `CC1=C(C#N)C(NC(=O)C2CCCCC2)(C(F)(F)F)C(=O)N1` (centres undefined): the z-score turned out to be 0.178. Regarding `Cc1ccc(/C=C/C(=O)N2CCCC(C)C2)cc1` (centres undefined), the z-score was -0.296. `COc1ccc(OC(=O)c2cnn(-c3ccccc3)c2C)cc1` returned a z-score of -0.182.

Turning to `FC(F)(F)c1cnc(NNC(=S)Nc2ccc(Cl)cc2)c(Cl)c1`, the z-score is active: 6.35. Regarding `Cc1cc(NC(=O)COC(=O)C2CCN(S(=O)(=O)c3c(Cl)cccc3Cl)CC2)no1`, the z-score was -0.303.

`Cc1ccc2cc(C(c3nnnn3CC3CCCO3)N3CCc4ccccc4C3)c(=O)[nH]c2c1` (centres undefined) displayed a z-score of 0.023.

Molecule `O=S(=O)(Nc1ccc(N=Nc2ccccc2)cc1)c1ccccc1` registered a z-score of -0.241. The molecule `CCC(C)C(=O)Nc1ccc(OC)cc1[N+](=O)[O-]` (centres undefined) returned a z-score of -0.00262. The same measure for `COc1cc(CC(=O)N/N=C/c2ccc([N+](=O)[O-])cc2)c([N+](=O)[O-])cc1OC`: 0.0193. `CCC(C(=O)NCc1ccco1)n1nc(-c2ccc(OC)cc2)ccc1=O` (centres undefined) came in with a z-score of 1.8. `O=C(CSc1nnc(SCc2cccc3ccccc23)s1)N/N=C/c1c[nH]c2ccccc12` yielded a z-score of 0.828.

As to `CCc1c(C)nc(SCC(=O)c2cccs2)c(C#N)c1C`, the z-score is 0.0943. In the case of `O=C(CCn1c(=S)[nH]c2ccccc2c1=O)NCCCN1CCOCC1`, the z-score worked out at 0.308. Regarding `COc1ccc(N(CN2C(=O)C3C4C=CC(C4)C3C2=O)C(=O)c2ccco2)cc1` (centres undefined), the z-score is -1.01. Then `CCCC(=O)Nc1ccc(NC(=O)c2cccs2)cn1`, with -0.4; and `Cc1ccc(OCC(=O)NNC(=O)c2cc3ccccc3o2)cc1`, with 0.736.

For `Cc1noc(C)c1COc1ccc(C(=O)NCC2CCCO2)cc1` (centres undefined), the z-score worked out at 0.0578. `COC(=O)CNC(=O)Cn1cnc2sc(C)c(S(=O)(=O)N3CCC(C)CC3)c2c1=O`: the z-score is -0.219. Regarding `N#CC(C(=O)NC1CCCCC1)c1nc2ccccc2nc1N1CCN(c2ccc(F)cc2)CC1` (centres undefined), the z-score worked out at 0.252. `S=C(Nc1ccc2snnc2c1)N1CCN(c2ccccn2)CC1`: the z-score is -0.0796.

For `O=C(Nc1ccccc1)c1ccc(NCC2CCCO2)c([N+](=O)[O-])c1` (centres undefined), the z-score is -0.175. `Cc1cc(N/N=C/c2ccc(Cl)cc2)nc(NCc2ccccc2)n1` came in with a z-score of -0.165. In the case of `Cc1ccc(C)c(-n2c(Cc3cc(=O)[nH]c(=O)[nH]3)nnc2SC(C)C)c1`, the z-score is 0.138. Regarding `O=C1CCCN1Cc1ncnn1-c1ccccc1`, the z-score is -0.145.

In turn, `COc1cccc(N2CCCn3c2nc2c3c(=O)n(CCN3CCOCC3)c(=O)n2C)c1` returned a z-score of -0.284. On to `CCOC(=O)c1c(C)nc2sc3c(=O)n(-c4ccc(C(C)=O)cc4)cnc3c2c1-c1ccc(OC)cc1`, for which the z-score was -0.361. `Cc1cc(C)n(-c2ccc(C(=O)Nc3ccc(N4CCOCC4)cc3)cc2)n1` registered a z-score of -0.13. For `O=C(CCCn1c(=O)[nH]c2ccsc2c1=O)N1CCCCC1`, the z-score amounted to 0.2.

The molecule `COc1cccc(CN2C(=O)c3ccccc3C2C(=O)NCC2CCCO2)c1` (centres undefined) registered a z-score of -0.0589.

`CCc1ccc(OCC(=O)N(C)CCC#N)c(Br)c1` came in with a z-score of -0.043. The same measure for `CCOC(=O)c1cc2ccccc2nc1C`: 0.138. `Cc1csc(SCC(=O)Nc2nc(-c3ccccc3)cs2)n1` showed a z-score of 1.07. As to `CCCCC(=O)Nc1ccc(NC(=S)NC(=O)CC)cc1OC`, the z-score is -0.168. The molecule `COC(=O)Oc1ccc(/C=N/NC(=O)CSCc2ccccc2Br)cc1OC` gave a z-score of -0.071.

Regarding `CCCn1c(O)c(CN2CCCCC2)c(C)c(C#N)c1=O`, the z-score is -0.183. On to `CCc1ccc(Nc2ccc(S(=O)(=O)N3CCOCC3)cc2[N+](=O)[O-])cc1`, for which the z-score was determined as 0.0428. Consider `CC(C)Oc1ccc(/C(O)=C2/C(=O)C(=O)N(CCN(C)C)C2c2ccco2)cc1` (centres undefined), for which the z-score was determined as 0.648. `CC(c1ccccc1F)n1cc(C(=O)NCCCn2ccnc2)nn1` (centres undefined) displayed a z-score of -0.244. `N#Cc1c(-c2ccccc2)nc(-c2ccccc2)[nH]c1=O` gave a z-score of -0.54.
